The results in this text go back to the RNAGym collection of RNA variant scans (doi:10.1093/nar/gkz1192).

B1: CPEB3 Ribozyme (parent)
chain: UAACAGGGGGCCACAGCAGAAGCGUUCACGUCGCAGCCCCUGUCAGAUUCUGGUGAAUCUGCGAAUUCUGCUGUAUAUCUC

The source gives no read counts; variants with many changes may rest on few reads.

The data set covers variants of B1. As to the kind of experiment: self-cleavage, relative activity (ratio to wild type); higher = more cleavage; in vitro, sequencing. Summed up: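 Relative activity compares each variant's cleaved/total read fraction with that of the unmutated ribozyme. To get these fractions, barcoded CPEB3 ribozyme libraries from rounds of error-prone PCR were transcribed with T7 RNA polymerase for 5 hours at 37°C and then given 15 min of DNase I treatment before EDTA was added. The RNAs were reverse transcribed with template switching and sequenced on Illumina, and DNA sequencing linked barcodes to variants. A minimum of 5 reads applied, and three batches were averaged.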
In the case of U60A U72G U78C, the self-cleavage is 0.71.

On to A57U U78C U80A, for which the self-cleavage was 0.93.

Turning to A57G U74G A75G, the self-cleavage was determined as 1.13.

As to U58A A65G U72C, the self-cleavage was 0.4.

As for U58C C62U U67A C71U, the self-cleavage was found to be 0.27.

Take U58C U74C U80A: the self-cleavage came to 1.13.

Turning to A64G A65G A77U U80C, the self-cleavage is 0.21.

Regarding U60C U69A U74C U78C, the self-cleavage came out at 0.42.

Consider U60C U69C C79U, for which the self-cleavage amounted to 0.37.

In the case of U58C U66C A75G, the self-cleavage worked out at 0.17.

Take A57G U74C U80C: the self-cleavage came to 0.99.

For U60A A64G U69A, the self-cleavage was 0.23.

On to U60A A64G U69C, for which the self-cleavage came to 0.36.

Turning to G63A A64C A77U, the self-cleavage came to 0.16.

For the variant U60A C62G A64U U66C, the self-cleavage stood at 0.3.

Regarding U60C A64G U66C, the self-cleavage came to 0.3.

For the variant U60C A65G U78C U80C, the self-cleavage amounted to 0.18.

For U60A A65C U72A, the self-cleavage was determined as 0.25.

Consider U60C A64G U74C A77G, for which the self-cleavage amounted to 0.71.

U58A U67C C71U: the self-cleavage was determined as 0.21.

With U58C A64G U69C U78C, the self-cleavage is 0.17.

For the variant A57U U67A C81A, the self-cleavage came out at 0.21.

In the case of G63C A65U U69A, the self-cleavage came out at 0.27.

With U58C U74A U80C, the self-cleavage stood at 0.92.

On to G63A U69C U72C, for which the self-cleavage is 0.26.

For C62A A64G U76C, the self-cleavage is 0.11.

For the variant U58C U69A U72C, the self-cleavage came out at 0.21.

As to U60C A75U U78C, the self-cleavage amounted to 0.75.

Regarding C62U A64U U69C, the self-cleavage worked out at 0.31.

As to U58C A64G C81A, the self-cleavage was 0.38.

For the variant A64G A65C U66C, the self-cleavage stood at 0.27.

Consider A64G U66C U72A, for which the self-cleavage was found to be 0.21.

Turning to U60C U67A A75U, the self-cleavage worked out at 0.29.

For the variant A64G C71G U80A, the self-cleavage turned out to be 0.14.

U58C U60A U69C C71U: the self-cleavage came to 0.48.

For the variant U60C A64G U80C, the self-cleavage was determined as 0.19.

For the variant U60C A77G U80C, the self-cleavage is 0.45.

For A57G U72C A75G, the self-cleavage stood at 1.19.

With U58A U67C U69C U72A, the self-cleavage came to 0.18.

Regarding C59G U60C U66C U72A, the self-cleavage was found to be 0.14.

With C62U G70A C79U, the self-cleavage amounted to 0.3.

A64C U72A U78C: the self-cleavage came to 0.27.

Consider G63C A64G U67C U69C U78A, for which the self-cleavage is 0.13.

For U60C A65G U80C, the self-cleavage came out at 0.37.

On to U60C U72A A77G, for which the self-cleavage turned out to be 0.51.

With U58C C59U U67C, the self-cleavage amounted to 0.21.

G63U A65U U69C: the self-cleavage came out at 0.29.

For the variant U60C C79U U80C, the self-cleavage came to 0.29.

Regarding U60A G63U A65G U78C, the self-cleavage was 0.29.

On to C59U C71G U76A, for which the self-cleavage stood at 0.18.

Regarding U60C A64U U66A, the self-cleavage came out at 0.22.

For the variant U58C C62G U72G, the self-cleavage was determined as 0.27.

For U58C U60G U66C, the self-cleavage was determined as 0.18.

Take U60G U72C U78C: the self-cleavage was determined as 0.25.

Regarding G63A U67C U72A, the self-cleavage stood at 0.22.

On to U58C U60A U74G, for which the self-cleavage came to 0.15.

Consider C62U U74C U76C, for which the self-cleavage stood at 0.45.

In the case of A64G U66C U78G, the self-cleavage is 0.26.

G63U A64G U80C: the self-cleavage was 0.93.

For U60C C62G C68G, the self-cleavage turned out to be 0.37.

G61C A64G U80A: the self-cleavage is 0.21.

Take U58C U60C U74C: the self-cleavage is 0.23.

Turning to C59U U67C A77G U80A, the self-cleavage was found to be 0.19.

For U60A A64U U67A, the self-cleavage worked out at 0.1.

For A64G G70A U78C, the self-cleavage turned out to be 0.32.

As to U60C U66C A77U U80A, the self-cleavage was 0.29.

In the case of A64C C71G U78C, the self-cleavage turned out to be 0.29.

In the case of A57U U60G U67C, the self-cleavage came to 0.16.

Regarding G61A U72C A77U, the self-cleavage worked out at 0.99.

In the case of U58C U60A U66C C68U U69A C71U U80C, the self-cleavage is 0.38.

Turning to U60C U66A U72C, the self-cleavage came out at 0.18.

With U60C A65G U67C, the self-cleavage stood at 0.21.

Regarding A64G A65G U67C, the self-cleavage amounted to 0.21.

As for U60A G63C G70A, the self-cleavage worked out at 0.38.

Turning to G63A A65G U66C, the self-cleavage was 0.3.

For the variant A57U U69C U80A, the self-cleavage amounted to 0.17.

Turning to U58C A65G U69A, the self-cleavage was determined as 0.35.

For the variant U60C A64U U67C U69C, the self-cleavage stood at 0.54.

In the case of C62U U67A U76C, the self-cleavage was 0.25.

With U58C U72C U76C, the self-cleavage was 0.81.

In the case of U60C U66G U72C, the self-cleavage came to 0.16.

For the variant U60C A65G U66G U74C, the self-cleavage was found to be 0.41.

Take A64C U69C G70U: the self-cleavage is 0.37.

U58C U60C U72C: the self-cleavage was 0.41.

On to U60C U66C U72A, for which the self-cleavage stood at 0.29.

As for U60A G63A U67C U69C, the self-cleavage is 0.36.

Turning to G61A C71U U72C, the self-cleavage worked out at 0.11.

As to U60C A65G A75G, the self-cleavage was 0.21.

Turning to U58A U66C U72C U80C, the self-cleavage stood at 0.16.

For G63U U66C U80C, the self-cleavage amounted to 0.49.

As for A57U U67C G70U U72C, the self-cleavage is 0.18.

As for C62A G73A U74A, the self-cleavage is 0.25.

For U58A U60A U80A, the self-cleavage stood at 0.29.

Consider C59G C71A U72A A77G, for which the self-cleavage was 0.12.

In the case of C59U U60A G61A U67C U78C, the self-cleavage was found to be 0.14.

For U60G A64G U72C, the self-cleavage was 0.21.

As to C59U U60C U66C U67C U69C, the self-cleavage amounted to 0.23.

Turning to U58C G61A U67A C68A, the self-cleavage was found to be 0.23.

G63A U69A U78C: the self-cleavage turned out to be 0.58.

For the variant A57G U76G A77G, the self-cleavage came to 0.59.

As to A57G U72C U80A, the self-cleavage was determined as 0.43.

For the variant A57G U72C U80C, the self-cleavage worked out at 1.25.

On to U60C A64G U67A, for which the self-cleavage amounted to 0.36.

Consider C62G U74C U78C, for which the self-cleavage turned out to be 0.21.

For the variant U58C C62G U80A, the self-cleavage stood at 0.11.

For U60C A65G U72A A75G, the self-cleavage is 0.18.

For U60A A64G U80C, the self-cleavage is 0.4.

U60A U72C A77U U78C: the self-cleavage is 0.59.

In the case of U58G U78C U80C, the self-cleavage came to 0.1.

Consider U58A U74A A77U U78A, for which the self-cleavage was found to be 0.96.

Regarding U60C C68U C79A, the self-cleavage was found to be 0.65.

For U60C G61A C71A, the self-cleavage came out at 0.14.

Regarding A64G A75G C79A, the self-cleavage was 1.01.

For the variant U58A U66A U67A A77G, the self-cleavage worked out at 0.11.

With U60A U69C U72G, the self-cleavage is 0.32.

As for U60A U69C U72C, the self-cleavage turned out to be 0.27.

As for C62G A77G U80G, the self-cleavage is 0.13.

For the variant A57G U72C C81U, the self-cleavage was 1.25.

With U60A C71G U78A, the self-cleavage came out at 0.26.

U60C A64G U72A: the self-cleavage turned out to be 0.26.

Take U60A C62A U76A: the self-cleavage amounted to 0.31.

Regarding U60A U72C A77G, the self-cleavage amounted to 0.85.

Turning to A64G A75U U78A, the self-cleavage was 1.07.

In the case of U60A A64G A65G U69C, the self-cleavage was found to be 0.39.

As for C59U U66C U74C, the self-cleavage came to 0.62.

In the case of A57U C62U A64G U67C U80C, the self-cleavage was determined as 0.14.

Turning to U58A U78A U80A, the self-cleavage worked out at 0.31.

Turning to C59U U67C U78G C81A, the self-cleavage turned out to be 0.47.

Take G63C U69A U74A: the self-cleavage turned out to be 0.71.

Consider A57U U60C U78C U80C, for which the self-cleavage stood at 0.09.

Turning to C62U U69C U72A, the self-cleavage was found to be 0.23.

For the variant A64G U66C G70A, the self-cleavage is 0.17.

U58C A64G U80A: the self-cleavage was 0.31.

Turning to G61C G63U U78C, the self-cleavage was determined as 0.29.

On to U60A A75G U80A, for which the self-cleavage turned out to be 0.33.

As for U58C U67C U80C, the self-cleavage was 0.13.

For A57G U74C U78C, the self-cleavage came to 0.92.

Consider U58C U60C U67A U69A, for which the self-cleavage is 0.2.

With A64G A65G U78C, the self-cleavage amounted to 0.18.

With U60A A65G U80C, the self-cleavage was determined as 0.31.

As to A64C U69C U72A, the self-cleavage came to 0.23.

Take U60A U67C U76C: the self-cleavage was determined as 0.39.

Turning to U58A C59A U72A U80G, the self-cleavage amounted to 0.29.

Regarding A64G A65G C68A, the self-cleavage came out at 0.21.

Regarding U60G U66G U80C, the self-cleavage came out at 0.22.

Consider U60C A65G U66C U69A, for which the self-cleavage was 0.15.

Consider U58C A64U A75G, for which the self-cleavage came to 0.17.

Turning to C62U A65G U69C, the self-cleavage was 0.3.

Turning to U58G U60C U67C, the self-cleavage was determined as 0.18.

Regarding U58C U60A A77G, the self-cleavage stood at 0.41.

For U60C U72C U74C, the self-cleavage stood at 0.46.

Turning to A64G A65G U66A, the self-cleavage was 0.2.

On to A64G A65G U66C, for which the self-cleavage amounted to 0.2.

As for U58C A64G U74C, the self-cleavage was 0.48.

For U58C A64G U66C U74C, the self-cleavage was found to be 0.28.

Consider U60C U69A A77U, for which the self-cleavage amounted to 0.41.

U60A C71U U78C: the self-cleavage was found to be 0.38.

As for G63A A64U U72G, the self-cleavage is 0.39.

Take C62G A64G U67G: the self-cleavage stood at 0.21.

Turning to U60C U67C U78A, the self-cleavage amounted to 0.21.

Take U58A C59U U72C: the self-cleavage is 0.31.

As for U60A U66C U80A, the self-cleavage worked out at 0.32.

For the variant U60A U69A U78A, the self-cleavage is 0.28.

With U58C U60A A77G U80C, the self-cleavage turned out to be 0.18.

As to U60A C62G A64U, the self-cleavage stood at 0.26.

As for U58C U72A A77G, the self-cleavage was found to be 0.5.

Consider U58C A75U U80C, for which the self-cleavage turned out to be 0.88.
